Paper PMC6175577, “BRCT domains of the DNA damage checkpoint proteins TOPBP1/Rad4 display distinct specificities for phosphopeptide ligands” (eLife, 2018)
Results are given in words; binding and its absence hold for the method and conditions named. Some entries that bind do so weakly or less than the wild type.

Biological target: T1, Mdb1 pS216, pT218 fluorescein-labelled phosphopeptide (SDT site) (S. pombe)
T1 sequence (peptide, fluorescein on the N-terminus; phosphoserine at 216; phosphothreonine at 218): GYGVEGDHSSDTEEEVVS
Test: fluorescence polarisation; fluorescein-labelled peptide at 200 nM, increasing concentrations of recombinant protein; room temperature; 25 mM HEPES pH 7.5, 150 mM NaCl, 1 mM EDTA, 0.25 mM TCEP, 0.02% Tween-20; one site-specific binding model; both purified

B1: S. pombe Nbs1 (protein, UniProt O43070 1-613)
chain: MWIIEAEGDILKGKSRILFPGTYIVGRNVSDDSSHIQVISKSISKRHARFTILTPSEKDYFTGGPCEFEVKDLDTKFGTKVNEKVVGQNGDSYKEKDLKIQLGKCPFTINAYWRSMCIQFDNPEMLSQWASNLNLLGIPTGLRDSDATTHFVMNRQAGSSITVGTMYAFLKKTVIIDDSYLQYLSTVKESVIEDASLMPDALECFKNIIKNNDQFPSSPEDCINSLEGFSCAMLNTSSESHHLLELLGLRISTFMSLGDIDKELISKTDFVVLNNAVYDSEKISFPEGIFCLTIEQLWKIIIERNSRELISKEIERLKYATASNSTPQKIIQPQRHIQKNIVDDLFSVKKPLPCSPKSKRVKTLENLSIMDFVQPKQMFGKEPEGYLSNQSNNGSAQNKKSGDNSEKTKNSLKSSSKKSANTGSGQGKTKVEYVSYNSVDKGNSSPFKPLELNVVGEKKANAEVDSLPSENVQESEDDKAFEENRRLRNLGSVEYIRIMSSEKSNANSRHTSKYYSGRKNFKKFQKKASQKAPLQAFLSLSEHKKTEVFDQDDTDLEPVPRLMSKVESIPAGASSDKSGKSSISKKSSNSFKELSPKTNNDEDDEFNDLKFHF
- binding: binds
